Reference: PubChem BioAssay AID1645882 (National Center for Advancing Translational Sciences (NCATS), 2021)
Screen size: about 16,000 compounds; about 120 (0.75%) were called active. Not shown: some 4% with an inconclusive outcome. The call rests on the fitted dose curve; in most records, active means well fitted inhibition curve with a large enough effect; inconclusive means small, poorly fitted or top-dose-only effect; inactive means no such curve, though single readings can be large or run the other way. The list shows a part of the results.

Biological target: Rap guanine nucleotide exchange factor 3 (Homo sapiens) (UniProt O95398)
UniProt O95398, sequence (O95398 whole entry, looked up): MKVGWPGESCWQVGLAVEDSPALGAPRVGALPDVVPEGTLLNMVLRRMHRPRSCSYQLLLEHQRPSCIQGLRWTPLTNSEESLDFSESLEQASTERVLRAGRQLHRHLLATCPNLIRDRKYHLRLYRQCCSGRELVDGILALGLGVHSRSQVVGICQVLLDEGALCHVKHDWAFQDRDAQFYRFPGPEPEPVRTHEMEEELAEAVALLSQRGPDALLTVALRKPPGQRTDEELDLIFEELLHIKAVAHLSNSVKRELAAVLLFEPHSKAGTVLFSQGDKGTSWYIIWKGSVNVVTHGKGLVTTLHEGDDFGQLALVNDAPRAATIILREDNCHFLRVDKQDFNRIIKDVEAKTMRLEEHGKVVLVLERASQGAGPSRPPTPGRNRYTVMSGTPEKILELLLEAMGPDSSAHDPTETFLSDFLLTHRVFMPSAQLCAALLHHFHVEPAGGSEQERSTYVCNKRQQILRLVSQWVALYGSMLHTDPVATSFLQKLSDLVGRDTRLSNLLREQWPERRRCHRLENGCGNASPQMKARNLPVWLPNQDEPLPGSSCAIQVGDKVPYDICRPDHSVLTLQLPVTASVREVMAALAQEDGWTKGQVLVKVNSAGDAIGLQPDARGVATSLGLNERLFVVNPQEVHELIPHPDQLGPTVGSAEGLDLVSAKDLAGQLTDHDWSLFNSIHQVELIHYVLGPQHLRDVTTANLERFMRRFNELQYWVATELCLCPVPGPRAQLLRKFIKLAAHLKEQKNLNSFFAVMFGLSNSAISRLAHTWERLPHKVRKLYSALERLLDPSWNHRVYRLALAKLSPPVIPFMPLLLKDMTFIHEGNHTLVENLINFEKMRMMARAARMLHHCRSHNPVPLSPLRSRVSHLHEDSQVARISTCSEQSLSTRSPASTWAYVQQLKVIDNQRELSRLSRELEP
Test: Validation qHTS for antagonist of cAMP-regulated guanine nucleotide exchange factor 3 (EPAC1); further: nearly all actives have a fitted effect of over 75% in size;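 on activity change, negative = inhibition: plate controls were DMSO for no effect and ATA control for full effect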
Conditions: EPAC1 Rap1B-BODIPY-GDP exchange, fluorescence; series mostly up to 150 µM; activity change, negative = inhibition: at the top concentration
How it was run: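 EPAC1 (100 nM) mixed with 250 nM RAP1B-BODIPY-GDP and 50 uM GDP; compounds in concentration series, 5 min at room temperature. Fluorescence (ex 480/em 540 nm) read every 5 min for 30 min; normalized to ATA control and DMSO.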
Potency means the concentration at half of the fitted maximal effect.

SMILES | activity change, negative = inhibition | Potency
COc1ccccc1C1CN(CC(=O)N2CCC(N3CCOCC3)CC2)Cc2ccccc2O1 (centres undefined) | inactive: 33.1% | –
COc1cccc(-c2ccc3ncnc(NCc4cccnc4)c3c2)c1 | inactive: -15.7% | –
OCC(O)COc1cccc2ccccc12 (centres undefined) | inactive: 28.2% | –
FC(F)(F)c1cc(CN2CCC3(CCNCC3)CC2)cc(C(F)(F)F)c1 | inactive: 1.97% | –
CN1CC(O)c2cc(N=NC(N)=O)c(O)cc21 (centres undefined) | inactive: -10.2% | –
CSc1ncnc2c1ncn2C1OC(CO)C(O)C1O (centres undefined) | inactive: 10.7% | –
COCC(=O)N1CCC[C@@]2(CCN(C(=O)Nc3cccc(C#N)c3)C2)C1 | inactive: 19.2% | –
COCCn1c(=O)c(-c2ccc(Cl)cc2)nc2cnc(OCc3ccccc3)nc21 | inactive: 21.4% | –
COc1ccc(/C=C/C(=O)Nc2ccccc2C(=O)O)cc1OC | inactive | –
CCN(CC)CCNC(=O)c1c(C)[nH]c(/C=C2\C(=O)Nc3ccc(F)cc32)c1C | inactive: -2.58% | –
COc1cccc(Cn2c(=O)cnc3cnc(Nc4cccc(OC)c4)nc32)c1 | inactive: 0.979% | –
COC(=O)[C@@H]1[C@@H]2C[C@H]3c4[nH]c5ccccc5c4CCN3C[C@@H]2CC[C@@H]1O | inactive | –
CCN(Cc1ccncc1)Cc1ccc2c(c1)CN(C(=O)c1ccc(C#CC(C)(C)O)o1)CCO2 | inactive: 16.2% | –
O=C(/C=C/c1ccc(O)cc1)c1cccs1 | inactive: 8.61% | –
CC(=O)Oc1c(C)cc(OCC(O)CNC(C)C)c(C)c1C (centres undefined) | inactive: 18.2% | –
CC(=O)N1CCC2(CC1)CN(Cc1ccccc1)C2 | inactive: 14.5% | –
CCN(CC)CCCC(C)Nc1cc(/C=C/c2ccccc2Cl)nc2cc(Cl)ccc12 (centres undefined) | inactive: 12.6% | –
CC(=O)c1ccc(F)c(-c2cc(C)cc3c2OC(CNC(=O)Cc2ccc4c(c2)OCO4)C3)c1 (centres undefined) | inactive: -11.6% | –
CC(C)c1c(C(=O)N(C)CC2CCCN(C)C2)cnn1-c1nccc(-c2cccs2)n1 (centres undefined) | inactive: -3.06% | –
Nc1ncnc2[nH]c(=O)[nH]c12 | inactive: 11.4% | –

SMILES | activity change, negative = inhibition | Potency
Cc1cccc(C)c1OCC(C)N (centres undefined) | inactive | –
CCOC(=O)Nc1ccc2c(c1)N(C(=O)CN(C)C)c1ccccc1CC2 | inactive: 0.972% [at 320 µM] | –
CCOc1ccc2nc(N3CCCC3C(=O)N3CCC(c4nc5ccccc5o4)CC3)nc(C)c2c1 (centres undefined) | inactive: -3.08% | –
CN(Cc1ccco1)c1nc(-c2ccc3c(c2)OCO3)nc2ccccc12 | inactive: -8.59% | –
COc1ccccc1N1CCN(CCCCN2C(=O)c3ccccc3C2=O)CC1 | inactive | –
Cc1cnc(CNc2cc(-c3ccc(C(=O)N(C)C)cc3)ncn2)cn1 | inactive: 9.46% | –
Cn1cccc1C(=O)N1CCC2(CC1)CCN(c1cccc(-c3ccccc3)c1)CC2 | inactive: 5.38% | –
COc1ncc2ncc(=O)n(Cc3ccc(F)cc3)c2n1 | inactive: 14.1% | –
Clc1cccc(C=NC=Nc2cccc(Cl)c2)c1 | inactive: -12% | –
COc1cc(C2c3cc4c(cc3C(O)[C@H]3COC(=O)C23)OCO4)cc(OC)c1OC (some centres undefined) | inactive | –
Cc1cc(=O)[nH]c(=S)[nH]1 | inactive: 10.8% | –
COc1ccc(-c2nc3cc(C)ccc3cc2CN(C(=O)c2ccco2)C2CC2)cc1OC | inactive: 19% | –
COc1ccc(OC)c(/C=C/c2nc3ccccc3nc2C)c1 | inactive: 6.16% | –
CCCCCCCCCC(=O)NO | inactive | –
COc1ncc2nc(CCc3ccccc3)c(=O)n(-c3ccccc3)c2n1 | inactive: -10.7% | –
NC[C@@H]1O[C@H](O[C@H]2[C@@H](O)[C@H](O[C@@H]3[C@@H](O)[C@H](N)C[C@H](N)[C@H]3O[C@H]3O[C@H](CO)[C@@H](O)[C@H](O)[C@H]3N)O[C@@H]2CO)[C@H](N)[C@@H](O)[C@@H]1O | inactive: 9.75% | –
CN1C(=O)CC(CC(=O)N2CCCCC2CCO)(c2cccc(F)c2)C1=O (centres undefined) | inactive: 10.2% | –
CC[C@]1(O)C[C@H]2CN(CCc3c([nH]c4ccccc34)[C@@](C(=O)OC)(c3cc4c(cc3OC)N(C=O)[C@H]3[C@@](O)(C(=O)OC)[C@H](OC(C)=O)[C@]5(CC)C=CCN6CC[C@]43[C@@H]65)C2)C1 | inactive: 10.5% | –
CC1(COc2ccc(C[C@H]3SC(=O)NC3=O)cc2)CCCCC1 | – | active: 89.1 µM
O=c1c(-c2ccc(Cl)cc2)nc2cnc(N3CCOCC3)nc2n1CCc1ccccc1 | inactive: 11.1% | –

SMILES | activity change, negative = inhibition | Potency
COc1cc(C)c2c(c1C=O)Oc1c(c(C)c(O)c3c1C(O)OC3=O)OC2=O (centres undefined) | inactive: -12.9% | –
COc1ccccc1C1CN(CCNC(=O)c2ccccc2Cl)Cc2ccccc2O1 (centres undefined) | inactive: 18.5% | –
N[C@H](Cc1cnc[nH]1)C(=O)O | inactive | –
CNc1ncncc1-c1ccccc1C(F)(F)F | inactive: 14.6% | –
COc1ccccc1OCC(O)CO (centres undefined) | inactive | –
CCCCCc1ccc(-c2cn(Cc3ccc(C)cc3)nn2)cc1 | inactive: 7.13% | –
CCNc1ncc2nc(-c3ccccc3)c(=O)n(Cc3cccs3)c2n1 | inactive: 2.72% | –
C[C@@]12CCC(O)C[C@H]1CCc1ccccc12 (some centres undefined) | inactive: 7.7% | –
Cc1ccc2[nH]c3c(c2c1)CN(C(=O)CC1(c2ccccc2)CC(=O)N(Cc2cccnc2)C1=O)CC3 (centres undefined) | inactive: 2.52% | –
COC(=O)C1C(O)CC[C@@H]2CN3CCc4c([nH]c5ccccc45)C3C[C@@H]12 (some centres undefined) | inactive | –
COc1cccc2c1C(=O)c1c(O)c3c(c(O)c1C2=O)C[C@@](O)(C(C)=O)C[C@@H]3O[C@H]1C[C@H](N)[C@H](O)[C@H](C)O1 | inactive | –
CCN1CCN(C(=O)N[C@@H](C(=O)N[C@@H]2C(=O)N3[C@@H]2SC(C)(C)[C@H]3C(=O)O)c2ccccc2)C(=O)C1=O | inactive: -13% | –
CNC(=O)c1cc(Oc2ccc(NC(=O)Nc3ccc(Cl)c(C(F)(F)F)c3)cc2)ccn1 | inactive: -8.93% | –
COc1ccc(C2CC(=O)c3c(O)cc(O[C@H]4OC(COC5OC(C)C(O)C(O)[C@@H]5O)C(O)C(O)C4O)cc3O2)cc1O (some centres undefined) | inactive: -9.86% | –
CN(C)C(=O)c1ccc(-c2ccc3ncnc(Nc4ccc(F)cc4)c3c2)cc1 | inactive: 0.359% | –
O=C(Nc1cccc(C(=O)Nc2ccc(S(=O)(=O)O)c3cc(S(=O)(=O)O)cc(S(=O)(=O)O)c23)c1)Nc1cccc(C(=O)Nc2ccc(S(=O)(=O)O)c3cc(S(=O)(=O)O)cc(S(=O)(=O)O)c23)c1 | – | active: 25.1 µM
CC(=O)OC1CC[C@]2(C)C(CC[C@@]3(C)C2C(=O)C=C2C4C(C)C(C)CC[C@@]4(C(=O)O)CCC23C)C1(C)C (some centres undefined) | inactive: 16.6% | –
O=C(CN1C(=O)c2ccccc2C1=O)NCC1Cc2cccc(-c3ncccn3)c2O1 (centres undefined) | inactive: 2.78% | –
Nc1ncnc2c1nc(Br)n2[C@@H]1O[C@H]2COP(=O)(O)O[C@@H]2[C@@H]1O | – | active: 2.82 µM
